Experimental data as given in the antibiotic and cytotoxicity screens of Wong et al. (2023).
This is one part of the list.

Tested on: HSkMC (human skeletal muscle cells)
Experiment: cytotoxicity call (relative viability < 0.9)
Settings: 10 µM

Compound	cytotoxicity call
N=C(N)NCCN1CCCCCCC1	inactive
CCCC#Cc1cnc2c(c1)C(=O)N([C@H](C)CO)C[C@H](C)[C@H](CN(C)S(=O)(=O)c1cccc(OC)c1)O2	inactive
C[C@H]1CN([C@@H](C)CO)C(=O)c2cccc(NC(=O)Nc3ccc(C(F)(F)F)cc3)c2O[C@@H]1CN(C)C(=O)Nc1ccc2c(c1)OCO2	active
CCCN(C)C[C@H]1OCCCC[C@@H](C)Oc2ccc(NC(=O)Nc3ccc(OC)cc3)cc2C(=O)N([C@@H](C)CO)C[C@H]1C	inactive
C[C@H]1CCCCO[C@@H](CN(C)CC2CCCCC2)[C@@H](C)CN([C@@H](C)CO)C(=O)c2cc(NC(=O)Nc3ccc4c(c3)OCO4)ccc2O1	active
C[C@@H]1O[C@@H](O[C@@H]2[C@@H](O)[C@H](OCCc3ccc(O)c(O)c3)O[C@H](CO)[C@H]2OC(=O)/C=C/c2ccc(O)c(O)c2)[C@H](O)[C@H](O)[C@H]1O	inactive
C[C@H](CO)N1C[C@H](C)[C@H](CN(C)C(=O)Nc2cccc3ccccc23)OCCCC[C@H](C)Oc2ccc(NC(=O)Nc3ccc(F)cc3)cc2C1=O	inactive
C[C@@H]1CN([C@H](C)CO)C(=O)c2c(c3ccccc3n2C)-c2ccccc2CO[C@@H]1CN(C)C(=O)Nc1ccc(-c2ccccc2)cc1	inactive
C[C@@H]1CCCCO[C@@H](CN(C)Cc2ccc(C(=O)O)cc2)[C@@H](C)CN([C@@H](C)CO)C(=O)c2cc(NC(=O)Cc3ccccc3)ccc2O1	inactive
Cc1cccc2sc(NC(=O)c3ccc(C(C)(C)C)cc3)nc12	inactive
COc1ccc(CN(C)C[C@H]2OCCCC[C@@H](C)Oc3ccc(NC(=O)NC(C)C)cc3C(=O)N([C@@H](C)CO)C[C@@H]2C)cc1	inactive
Cn1c([C@H]2C=C(C(=O)N[C@H]3c4ccccc4C[C@H]3O)O[C@@H](OCCCCO)C2)cc(=O)n1-c1ccccc1	inactive
Cc1[nH]c2ccccc2c1C(=O)CSc1ccc(Cl)cc1	inactive
Cc1ccccc1S(=O)(=O)N1C[C@@H](O)COC[C@H]2O[C@@H](CC(=O)N3CCC(Cc4ccccc4)CC3)CC[C@@H]21	inactive
CN(C)CCCNC(=O)C[C@@H]1C=C[C@H](NS(=O)(=O)c2ccccc2)[C@H](CO)O1	inactive
C[C@@H]1CN([C@H](C)CO)C(=O)c2cccc(NS(=O)(=O)c3ccc(F)cc3)c2O[C@@H]1CN(C)Cc1ccncc1	inactive
C[C@H](CO)N1C[C@H](C)[C@H](CN(C)S(=O)(=O)c2ccccc2)Oc2ncc(-c3ccncc3)cc2C1=O	inactive

Compound	cytotoxicity call
CN(C)C(=O)[C@@H]1[C@@H](CO)[C@@H]2Cn3c(ccc(C4=CCCC4)c3=O)[C@H]1N2S(=O)(=O)c1cn(C)cn1	inactive
C[C@H]1CN([C@@H](C)CO)C(=O)Cc2cc(NC(=O)Cn3cnnn3)ccc2O[C@H]1CN(C)Cc1ccc(C(F)(F)F)cc1	inactive
C[C@H](CO)N1C[C@H](C)[C@@H](CN(C)S(=O)(=O)c2ccc(F)cc2)Oc2ncc(-c3cccc(C(=O)N(C)C)c3)cc2C1=O	inactive
C[C@H]1CN([C@@H](C)CO)C(=O)c2cc(NC(=O)C3CCCCC3)ccc2O[C@H]1CN(C)C(=O)Nc1cccc2ccccc12	inactive
CC(=O)N1CCN(c2ncnc3nc[nH]c23)CC1	inactive
C[C@H](CO)N1C[C@H](C)[C@@H](CN(C)C(=O)Nc2cccc3ccccc23)Oc2c(NC(=O)CCCCCC(=O)Nc3ccccc3N)cccc2C1=O	inactive
C[C@H](CO)N1C[C@H](C)[C@@H](CN(C)Cc2ccc(C(F)(F)F)cc2)Oc2ccc(NC(=O)NC3CCCCC3)cc2C1=O	inactive
CCCNC(=O)C[C@H]1CC[C@H]2[C@@H](COc3ccc(NC(=O)c4ccc5c(c4)OCO5)cc3C(=O)N2C)O1	inactive
Cc1noc(C)c1S(=O)(=O)N(C)C[C@@H]1Oc2ccc(NS(C)(=O)=O)cc2CC(=O)N([C@@H](C)CO)C[C@H]1C	inactive
Nc1nc(=O)c2[nH]c(=O)c(=O)[nH]c2[nH]1	inactive
[O-][NH2+][O-]	inactive
CC12CCC(CC1=O)C2(C)C (stereo not drawn)	inactive
Cc1ccc(S(=O)(=O)Nc2ccc3c(c2)CC(=O)N([C@H](C)CO)C[C@@H](C)[C@@H](CN(C)Cc2ccc(C(F)(F)F)cc2)O3)cc1	active
NCc1cccc2c1OCCCO2	inactive
Nc1ccc(Oc2ccccc2)cc1	inactive
C[C@H](CO)N1C[C@H](C)[C@H](CN(C)CC2CC2)OCCCC[C@H](C)Oc2ccc(NS(=O)(=O)c3cn(C)cn3)cc2C1=O	inactive
